Results published in EP2330125A2.

Biological target: amylin receptor (rat)
Assay: 125I-amylin displacement, rat nucleus accumbens membranes

Receptor Binding: 0.03
Substance: hAmylin(1-7)-11,18Arg-sCT(8-27)-Amylin(33-37) (sequence not shown) (peptide; modification not given)
